Screen size: about 310,000 compounds; about 14,000 (4.5%) showed an effect of 50% or more. Effects have a minus sign here. The list shows a part of the results.
Biological target: human ether-à-go-go-related gene (hERG) potassium channel (human, UniProt Q12809)
Experiment: primary screen, population patch clamp on CHO cells stably expressing hERG
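Note: peak tail current of the secondary pulse compared with the same well before compound.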

Sequence of human ether-à-go-go-related gene (hERG) potassium channel (Q12809 whole entry, looked up): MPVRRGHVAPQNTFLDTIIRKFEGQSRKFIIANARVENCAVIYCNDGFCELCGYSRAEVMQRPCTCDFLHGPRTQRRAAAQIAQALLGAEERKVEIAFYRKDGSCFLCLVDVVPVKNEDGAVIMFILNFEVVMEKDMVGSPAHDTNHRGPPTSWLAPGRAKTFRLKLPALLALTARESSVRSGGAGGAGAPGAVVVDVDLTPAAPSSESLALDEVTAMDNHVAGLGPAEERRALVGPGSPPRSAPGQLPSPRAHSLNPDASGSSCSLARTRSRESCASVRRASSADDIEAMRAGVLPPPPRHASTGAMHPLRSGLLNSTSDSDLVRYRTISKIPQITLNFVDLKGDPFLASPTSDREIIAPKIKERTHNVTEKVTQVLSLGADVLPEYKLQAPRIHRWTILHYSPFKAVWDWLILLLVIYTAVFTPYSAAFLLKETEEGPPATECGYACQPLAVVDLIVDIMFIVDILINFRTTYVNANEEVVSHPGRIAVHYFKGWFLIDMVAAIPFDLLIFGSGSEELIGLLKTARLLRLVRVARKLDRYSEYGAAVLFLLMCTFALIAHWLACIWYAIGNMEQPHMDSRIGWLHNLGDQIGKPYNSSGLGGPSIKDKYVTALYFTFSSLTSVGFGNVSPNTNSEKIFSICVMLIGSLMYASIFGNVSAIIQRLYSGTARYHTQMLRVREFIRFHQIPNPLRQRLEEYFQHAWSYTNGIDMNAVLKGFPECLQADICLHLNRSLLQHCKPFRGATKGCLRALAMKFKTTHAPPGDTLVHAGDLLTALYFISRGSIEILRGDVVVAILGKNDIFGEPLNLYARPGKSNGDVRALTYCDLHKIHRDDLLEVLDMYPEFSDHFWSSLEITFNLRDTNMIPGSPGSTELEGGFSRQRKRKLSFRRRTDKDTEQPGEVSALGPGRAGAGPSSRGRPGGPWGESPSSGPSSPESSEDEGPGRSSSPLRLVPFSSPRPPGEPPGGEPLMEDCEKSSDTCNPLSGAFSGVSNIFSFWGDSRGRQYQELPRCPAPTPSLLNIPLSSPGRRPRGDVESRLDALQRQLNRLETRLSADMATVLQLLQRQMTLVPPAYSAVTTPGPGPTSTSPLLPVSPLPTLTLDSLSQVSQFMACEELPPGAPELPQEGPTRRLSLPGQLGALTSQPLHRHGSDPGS

Compound | hERG current change (%, negative = inhibition) at 10uM
CCOc1ccc(CCNC(=O)COC(=O)c2cccc(S(=O)(=O)N3CCCCC3)c2)cc1OCC | -27.4%
CC(C)C(NC(=O)c1ccc(C(C)(C)C)cc1)C(=O)N1CCC(C(N)=O)CC1 (stereo not drawn) | -5.72%
CN(C(=O)COC(=O)c1ccc2c(c1)OCO2)c1c(N)n(Cc2ccccc2)c(=O)[nH]c1=O | 11.6%
CN1C(=O)/C(=C/c2ccc(Cl)s2)C(=O)NC1=S | 21.2%
CC(=O)OCc1cc2cccc(C)c2[nH]c1=O | -9.76%
CN(CC(=O)Nc1ccc(Cl)c(C(F)(F)F)c1)C(=O)c1cccnc1Sc1ccccc1 | 15.1%
CCOC(=O)C1=C(C)NC(C)=C(C(=O)OC)C1c1cccc(Cl)c1Cl (stereo not drawn) | -7.89%
COC(=O)N1C(=O)[C@](c2ccsc2)(C(C)C)N1C(=O)OC | 17%
O=C(N/N=C/c1ccc(C(=O)O)cc1)C(=O)N1CCCCCC1 | 8.92%
C=CCn1c(SC(C)C#N)nc2sc(CC)cc2c1=O (stereo not drawn) | -41.2%
CCN1C(=O)CC(c2cccnc2)=Nc2ccccc21 | 32.2%
COc1cccc2c1OC[C@@H](CO)[C@H]2N(C)C(=O)Nc1ccccc1 | -1.26%
COc1cc(/C=C/c2ccc3c(Br)cc(Br)c(O)c3n2)ccc1O | 17.2%
COc1ccc(-c2cc(C(F)(F)F)nc(SCC(=O)Nc3cc(C)on3)n2)cc1 | 23.5%
Cc1ccc2nc(-c3ccc(NC(=O)COCC(=O)O)cc3)sc2c1 | 20.7%
CCOC(=O)CSc1nc(N)c(C#N)c(-c2ccc(OC)cc2)c1C#N | 17.2%
COCCNC(=O)CN(c1cc(Cl)ccc1OC)S(C)(=O)=O | -6.69%
CCCN(c1ccc(OCC)cc1)S(=O)(=O)c1ccc2c(c1)NC(=O)CO2 | 17.4%
CCOc1ccccc1C(=O)NCCC(=O)O | 8.38%

Compound | hERG current change (%, negative = inhibition) at 10uM
COc1ccc(CCC(=O)N/N=C\c2cccs2)cc1 | 7.5%
O=C(COc1cccc(Br)c1)Nc1ccc(N2CCOCC2)cc1N1CCOCC1 | -50.6%
Cc1ccc(S(=O)(=O)NCCn2nc(C)cc2C)cc1 | 16.1%
COc1ccc(COc2cccc3ccc(C)nc23)cc1F | 19.8%
CCOc1ccc(-n2ccnc(SCC(=O)Nc3ccc(OC)cc3OC)c2=O)cc1 | 9.58%
O=C(Cn1cnc([N+](=O)[O-])n1)c1ccc(O)c(O)c1 | 22.6%
Cc1ccc(OCCC(=O)OC(C)C(=O)Nc2ccc(Cl)cn2)cc1 (stereo not drawn) | -35.2%
CC(=O)c1c(N2CCOCC2)nc2ccc(Cl)cc2c1-c1ccccc1 | -2.85%
CCN(CC)S(=O)(=O)c1ccc(C)c(NC(=S)NC2CCCCC2)c1 | -18.1%
CCCCN1CC(C(=O)NCc2ccc(C)cc2)CC1=O (stereo not drawn) | -11.7%
CCOc1ccc(Cc2c(C)[nH]c3ccc(C(=O)O)cc3c2=S)cc1 | -9.2%
CC(C)c1ccc(C(=O)CSc2n[nH]c(-c3ccncc3)n2)cc1 | 2.85%
COc1ccc(NC(=O)Nc2ccc3c(c2)CCC3)c(OC)c1 | 7.3%
O=C(NCc1ccco1)C1CCCN1C(=O)Nc1ccccc1Cl (stereo not drawn) | 14.7%
COc1cc(NC(=O)c2ccco2)c(OC)cc1NC(=O)CCC(=O)Nc1cc(C)ccc1C | -3.12%
O=C1c2cccc(O)c2C(=O)c2c(O)cccc21 | 2.23%
Cn1cccc1C(=O)c1ccc(Cl)cc1Cl | -15.4%
CN(C)CCCN(C(=O)c1cccc(N2C(=O)CCC2=O)c1)c1nc2cc3c(cc2s1)OCO3.Cl | -24%
CC(SCc1ccccc1)C(=O)N/N=C/c1ccc2c(c1)OCO2 (stereo not drawn) | -9.27%

Compound | hERG current change (%, negative = inhibition) at 10uM
CC1CCCN(CC(=O)Nc2ccc(S(=O)(=O)N3CCCCCC3)cc2)C1 (stereo not drawn) | -66.8%
O=C(Nc1nnc(COc2ccc(F)cc2)s1)c1cccs1 | 3.06%
O=c1ccccn1Cc1c(F)cccc1Cl | -3.93%
CN(c1cccc2cccnc12)S(=O)(=O)c1ccccc1 | -8.43%
O=C(O)/C=C\C(=O)Nc1ccccc1C(=O)NC1CCCCC1 | 10.8%
O=S(=O)(/N=C(/NNS(=O)(=O)c1ccccc1)c1ccccc1)c1ccccc1 | 15.9%
Cc1nn(-c2ccccc2)c(C)c1NC(=O)COC(=O)c1cccc(OC(F)F)c1 | -38.1%
COc1ccc(NC(=S)NNC(=O)c2ccc(S(=O)(=O)N3CCOCC3)cc2)cc1 | 28.9%
O=C(NCc1cccc(Br)c1)c1cc(-c2ccccc2)nn1CC1CC(c2cccnc2)=NO1 (stereo not drawn) | -62.8%
CCOC(=O)C1CCN(C(=O)CN(c2ccc3c(c2)OCO3)S(C)(=O)=O)CC1 | -7.12%
Cn1nc(C(F)(F)F)cc1C(=O)Nc1ccc(Cl)cc1 | 3.41%
Cc1ccc(S(=O)(=O)CCC(=O)OCC(=O)NCCc2ccccc2)cc1 | -4.22%
CC(C)Cc1c(O)nc(SCC(=O)N2CCCCCC2)[nH]c1=O | 12.2%
Cn1c(=NC(=O)CN2C(=O)C3CC=CCC3C2=O)sc2ccccc21 (stereo not drawn) | -26.9%
Cc1cc2cc(CNS(=O)(=O)c3ccccc3)ccc2n1C | -5.19%
CCOC(=O)C(Cc1ccccc1)C(=O)NCc1ccccc1 (stereo not drawn) | 10.8%
CCOC(=O)CC(=O)Nc1ccccc1C(=O)O | -6.16%
Cc1ccc(OCCCSc2ncccn2)cc1C | -9.73%
CCOc1ccccc1NC(=O)Cn1nnc(C(=O)NCc2ccc3c(c2)OCO3)c1N | 1.75%
